The other results are listed elsewhere or left out.

The assay deals with PF3D7_0420300 AP2 domain 1 (GST-tagged). The assay is described as follows: gcPBM binding intensity (ln(normalized median fluorescence intensity)); higher = stronger DNA binding. Put shortly:
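The highest Masliner-normalised natural-log median intensity across replicate spots of either probe orientation is reported as binding intensity. GST-tagged P. falciparum DNA-binding domains expressed in E. coli were applied for 1 h to an Agilent 4 × 180k array of primer-extended double-stranded 36-bp intergenic genomic probes plus negative controls, and bound protein was detected with Alexa488 anti-GST antibody and scanned at 488 nm.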
Consider “ATATTATATAATAATGCATGCACCTTATTTTCATTT [TGCATGCA_site405]”, for which the “gcPBM binding intensity (ln)” value is 9.41.

Take “AACAAAATAAAAATAACACACACATTTATATATATA [CACACA_site8313]”: the “gcPBM binding intensity (ln)” value is 10.

“ATTATATTATTTTAAAGTACACACATATATTAATAT [XGTACX_site4769]”: the “gcPBM binding intensity (ln)” value was determined as 9.52. In the case of “ATATGCTAATAAAATTGTACATATTATTCATATTGT [XGTACX_site2344]” it was 9.29; in that of “CAATTAAAGAAAAACAGTACGTGTATCAAACATCCT [XGTACX_site8990]”, 9.6. In the case of “ATAAATACTTTTTGGTGTACACTTTTAAATGAAAAA [XGTACX_site3042]” it was 8.91; in that of “ATTTTTCCTCTCTTTTGTACTTATATATATATATAT [XGTACX_site7405]”, 9.64; in that of “TGACTACATAAAATGACACACACAAACTTTAAAATT [CACACA_site9151]”, 9.7. In the case of “ATATATTTTTAGCACAGTACAATATAATTAAATATA [XGTACX_site6779]” it was 9.2. Consider “CATAAAATTGTGAAGTGTACATATTTTTAAATATAA [XGTACX_site8986]”, for which the “gcPBM binding intensity (ln)” value is 9.08. In the case of “ATATATAATATAAGATGTACAATAAAATCTATATAT [XGTACX_site546]” it was 9.37.

For “ATAACTTTATTTTCCTGTACACACATTTGACATATT [XGTACX_site7192]”, the “gcPBM binding intensity (ln)” value was determined as 9.92. In the case of “AGAAATATCTAATTGTGTACTCAAGAAAAAGTTACG [XGTACX_site372]” it was 9.29; in that of “ATATTTTATATGTTCACACATACATAAACATATTTT [CACACA_site4948]”, 9.34. In the case of “GAATAAAAATTTTAATGTACATATTTTTTATTTATA [XGTACX_site8935]” it was 9.04; in that of “GGTAGTTATTATCTCCGTACTTATAAAGAAAAAAGG [XGTACX_site4674]”, 9; in that of “TTTATTTTCATATGAACACACATATAAATATTATAA [CACACA_site7172]”, 9.17. In the case of “TACAAATATATAAAATGTACATATATATACATATTA [XGTACX_site3029]” it was 9.1; in that of “TTTTTATTATTTAAATGTACATATAAATATATATAT [XGTACX_site6870]”, 9; in that of “AAGAAGAAACGGAAAAGTACAAAGAAGAAATAAGTA [XGTACX_site3680]”, 9.36. Take “CTTACAGACATATATACACACATGTATATTTTATAT [CACACA_site549]”: the “gcPBM binding intensity (ln)” value was found to be 9.49. In the case of “ATGTTTTTAATTTATTGTACATTAATTTGTATTATT [XGTACX_site253]” it was 9.48; in that of “TTTTCTTTTCTCTTCTTTTTCTCCCATTATTAATCT [XGTACX_negctrl_site406]”, 9.18.

As for “GAGGATGCCTATGGCACACATTATAAAACTGTCGCT [CACACA_site4322]”, the “gcPBM binding intensity (ln)” value stood at 9.11. In the case of “TCTGTAAACATATTCACACACATAAATTCGCATATA [CACACA_site1866]” it was 9.66. In the case of “ACAAAATAATTGTTTACACACCCATTTGTAATTTTA [CACACA_site3615]” it was 9.46; in that of “GAAAATTTATATTGCACACATAGGGAATAAAAAAAA [CACACA_site2146]”, 9.53; in that of “TATCATTGTTCATGCTTGCACTTTTGTTACTGTTCC [GTGCAC_site9425]”, 9.5. In the case of “TGTATGAAAATAAATGCATGCCAAATATATATATAT [TGCATGCA_site132]” it was 9.4.

Consider “AAAATGAAATATGTTATATATATATATATATATATA [CACACA_negctrl_site1752]”, for which the “gcPBM binding intensity (ln)” value came out at 8.98.

Take “TAATTTCCTTAAGAATGTACTTACATTTTATTATTT [XGTACX_site5998]”: the “gcPBM binding intensity (ln)” value stood at 9.16. In the case of “ATGGACAAGTTAAACGCACACAAATATATACAGACA [CACACA_site1652]” it was 9.83.

As to “GTTTATGTATTATTATGTACGTATCATAATATATAT [XGTACX_site2385]”, the “gcPBM binding intensity (ln)” value turned out to be 9.49. In the case of “TAATATGAAATGTGTACACACGCACCCACAAAAAAA [CACACA_site8949]” it was 9.74. In the case of “AAAAAATATAAAAAAAGTACACAAAAACTACAAAAA [XGTACX_site2677]” it was 9.77; in that of “AAAAAGAGGAAAAAGATAAAGAAATTAAAGGAGAGA [CACACA_negctrl_site423]”, 9.4.

As to “TTTAATCATTTTATTTGTACTCATAAAAAATATAAT [XGTACX_site5537]”, the “gcPBM binding intensity (ln)” value was found to be 8.84.

For “TTTTACTTAAGACACACACACACAAAAAAAAAAAAA [CACACA_site6573]”, the “gcPBM binding intensity (ln)” value is 9.88. In the case of “TAAACATAAATATGCACACATATACAGATATTCATA [CACACA_site5471]” it was 9.44; in that of “ATAAAATACATATAAACACACATATAAACCGACATA [CACACA_site2477]”, 10. Turning to “AGTTTTTACTCTAATGGTACAGTGCAACTAATAAAT [XGTACX_site6950]”, the “gcPBM binding intensity (ln)” value was 9.1.

As to “ATATATTCCATAAAGGTGCTGTTAACGTGTCAACGT [GTGCAC_site9402]”, the “gcPBM binding intensity (ln)” value stood at 9.29. In the case of “TTTATGTAAAAATATAGTACATATTAAAAGATAAGA [XGTACX_site8134]” it was 9.18; in that of “TAAGTATACACATACACACACACACTAAAAAAAAAA [CACACA_site6337]”, 10.1. Consider “ACTTTATTTTCCTGTACACACATTTGACATATTAAA [CACACA_site3378]”, for which the “gcPBM binding intensity (ln)” value is 9.83. Consider “CACCAAACTAAATGTACACACATACATAAATATAAA [CACACA_site4765]”, for which the “gcPBM binding intensity (ln)” value stood at 9.67. For the sequence “AAAAACAAAAAAAAAACACACAATTCTAGTTATTTT [CACACA_site2767]”, the “gcPBM binding intensity (ln)” value was 9.45.

Consider “TTTTTTTTCCTAATGTGTACTAAAAATGAACAATAA [XGTACX_site5248]”, for which the “gcPBM binding intensity (ln)” value turned out to be 8.84.

In the case of “AACATTATTTTGTGTACACATTCGGTTATATTATAT [CACACA_site5628]”, the “gcPBM binding intensity (ln)” value amounted to 9.68. In the case of “TTTTTTATTTTATTTTATTTTTATTTTTTTTTTTTT [GTGCAC_negctrl_site596]” it was 9.09; in that of “AAAAAAAAGAAACACACACACATACACATAAATATA [CACACA_site3807]”, 10.1; in that of “ATATTTTTTTCATAGACACACACAATATATCTGTTT [CACACA_site8993]”, 9.64. As to “ATTTCATTTATAAGGATATCTACTTTTTATTTTAAT [GTGCAC_negctrl_site59]”, the “gcPBM binding intensity (ln)” value turned out to be 9.2.

Take “AAACGAAAAAAATGGTGTACATTAAAATGAAAATTG [XGTACX_site7040]”: the “gcPBM binding intensity (ln)” value was 9.34. In the case of “TCTATCTTTTCCAAACGTACATTTTTTATATAAATT [XGTACX_site5352]” it was 9.23; in that of “TATTTTCCCTCCATATGTACTTAATTATAAGCACAT [XGTACX_site4000]”, 9.12. In the case of “TATATATCGCATAAAACACACAAAAAAAAAATTAAA [CACACA_site7767]” it was 9.39.

For “TTATATTCTATTTATTGTACTTAAATATATATATAT [XGTACX_site6400]”, the “gcPBM binding intensity (ln)” value worked out at 9.27.

With ATATATATCTTTTGTGTGCACATATATATAATATAT, the “gcPBM binding intensity (ln)” value came to 9.73. In the case of “AAAAAAAAAATATACACACACACATACACATAAATA [CACACA_site3808]” it was 10.1; in that of “TTTTTTTTGGTATAATGTACATTTTCACTTATGTAT [XGTACX_site3259]”, 9.48. On to “ACATATGTTAAAAAGGCATGCATTCTTTTTATTTTA [TGCATGCA_site1043]”, for which the “gcPBM binding intensity (ln)” value is 9.05. In the case of “ATTTTATTTTCTCACACACACATATATATATATATA [CACACA_site5781]” it was 10.

As for “ACCAAAAAAAAAAAAAAAAAAATATACATATATATA [GTGCAC_negctrl_site582]”, the “gcPBM binding intensity (ln)” value is 9.05. In the case of “GTGCCATTTAAAAAATGTACAAGAAAATGTTCATCA [XGTACX_site2865]” it was 8.97. In the case of “TATTTTAATTTTTTTTTGTTTTTTCTAATACATGTA [CACACA_negctrl_site1399]” it was 9.15; in that of “TGGTATTGAATTTTTTGTACACATAAAATATATATA [XGTACX_site7614]”, 9.15; in that of “ATAACATATTTCTTTTGTACTCAAAATAAAATTAAT [XGTACX_site2479]”, 8.91.

“AATTTTGTTGAGCACACACACATACATACATACATA [CACACA_site3154]”: the “gcPBM binding intensity (ln)” value is 9.93.

Turning to “AAATATATTTTATTTTGTACTTATGTATAAAATATA [XGTACX_site914]”, the “gcPBM binding intensity (ln)” value stood at 8.89. In the case of ATTAAATTTCCTTGAGTGCACATTTTGTTAAAATAT it was 9.24. For “TATATATATATATATTGTACTAGTGCATATATATAC [XGTACX_site7926]”, the “gcPBM binding intensity (ln)” value was found to be 9.2. In the case of “ACGTGATAAATAAATACATGCATAGAAAGATGCATA [TGCATGCA_site91]” it was 9.18; in that of “TTTAAATATTTTAATACACACACGATATGTACAAAA [CACACA_site4455]”, 9.5; in that of “TACAATGAAAAAATAACATGCAATTATATTTCTCTT [TGCATGCA_site833]”, 9.17. In the case of “AATAATAAAAAATATACACACATATATATATATATA [CACACA_site25]” it was 9.35; in that of “GCTTATAAAGGCAGAAGTACTGTATTCCTATATATA [XGTACX_site8865]”, 9.22; in that of “AAAAAAAAAAAAAAATGTACATATGGTATGCATATA [XGTACX_site3225]”, 9.24.

Take “TTGGCATACGGACACACACACACACCCAGACATATA [CACACA_site4492]”: the “gcPBM binding intensity (ln)” value came to 10.2.

For “TTATACAAATTCATGGGTACAAACAAACATATATCA [XGTACX_site6237]”, the “gcPBM binding intensity (ln)” value came to 9.51. In the case of “TATACCTATAAATACACACACATATAAATAAATATA [CACACA_site6153]” it was 9.99; in that of “AAAATATATACTCCATCACACACCAAAAAGAAAAAA [CACACA_site2542]”, 9.63. In the case of “TTTTAATGTACCAGTGTGCACCTTGCGTACATATTA [GTGCAC_site9957]” it was 9.2; in that of “ATTCAAAAGATGTATACACACATGTGTATAATATAA [CACACA_site7197]”, 9.57; in that of “AATAATATATATATAATACACACTATTATAATCACA [CACACA_site1310]”, 9.58.

For the sequence “TCCTTTATTTTTAAAGTGCATATACATGTACATTAT [GTGCAC_site9445]”, the “gcPBM binding intensity (ln)” value worked out at 9.13. In the case of “GAAGAAAAAAAATATACACACATACGATCATACATA [CACACA_site5227]” it was 9.87; in that of “CAGCTCTTAAGAATTACACACATATACACATATATA [CACACA_site7524]”, 9.58. In the case of “ATACATAAATACAAACGTACATACATACATACATAC [XGTACX_site7824]”, the “gcPBM binding intensity (ln)” value came to 9.36.

These data come from the supplement of paper PMC11417369.
